Measured values published in patent publication US20200149053A1, “MICROORGANISMS PROGRAMMED TO PRODUCE IMMUNE MODULATORS AND ANTI-CANCER THERAPEUTICS IN TUMOR CELLS” (Synlogic Operating Company, Inc., priority 2017, published 2020).

T1: mCD47 (Mus musculus, UniProt Q61735)
T1 sequence (Q61735 19-303): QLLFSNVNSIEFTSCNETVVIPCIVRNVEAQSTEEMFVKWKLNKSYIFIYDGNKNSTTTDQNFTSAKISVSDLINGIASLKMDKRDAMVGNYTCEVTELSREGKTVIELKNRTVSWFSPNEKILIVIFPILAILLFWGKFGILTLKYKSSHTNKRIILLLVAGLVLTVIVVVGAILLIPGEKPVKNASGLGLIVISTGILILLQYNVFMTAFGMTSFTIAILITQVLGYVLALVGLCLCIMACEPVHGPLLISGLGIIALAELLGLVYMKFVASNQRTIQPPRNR


Assays:
mCD47 = biological target: T1, mCD47; experiment: SIRPα/CD47 ELISA binding assay, mCD47 coating; conditions: for SIRPα/CD47 ELISA signal, coating material IgG / SIRPα/CD47 ELISA signal, coating material PBS: control coating; for SIRPα/CD47 ELISA signal, coating material mCD47: secreted protein in supernatant
anti-SIRPα antibody = experiment: SIRPα/CD47 ELISA binding assay, Anti-mSIRPα coating; conditions: secreted protein in supernatant

Molecule | SIRPα/CD47 ELISA signal, coating material IgG (mCD47) | SIRPα/CD47 ELISA signal, coating material PBS (mCD47) | SIRPα/CD47 ELISA signal, coating material mCD47 (mCD47) | SIRPα/CD47 ELISA signal, coating material Anti-mSIRPα (anti-SIRPα antibody)
Secreted anti-mCD47 scFv: anti-mCD47 scFv secreted by the genetically engineered E. coli Nissle (protein) scFv: QVKLLQSGAALVKPGASVKMSCQASGYSFTDYWVTWVKQSHGQSLEWIGEIYPSNTVTNFNDNFKGKATLTVDKSTSTAYMELSRLTSEDSAIYYCTRIGNSGYRVGWFIYWGQGTLVTVLSGGGGSGGGGSGGGGSDTVLTQSPALAVSPGERVTISCKASESVSSHMHWYQQKPGQQPKLLIYKASNLASGVPARFSGSGSGTDFTLTIDPVEADDTATYFCQQGWNGPFTFGAGTRLELKRADAAGSGELGGSGKPIPNPLLGLDSTGSGHHHHHH | 0.067 | 0.053 | 0.527 | 
Secreted WT mSIRPα: wild type murine SIRPα secreted by the genetically engineered E. coli Nissle (protein, left off: small tags and cut ends) KELKVTQPEKSVSVAAGDSTVLNCTLTSLLPVGPIRWYRGVGPSRLLIYSFAGEYVPRIRNVSDTTKRNNMDFSIRISNVTPADAGIYYCVKFQKGSSEPDTEIQSGGGTEVYVLAKPSPPEVSGPADRGIPDQKVNFTCKSHGFSPRNITLKWFKDGQELHPLETTVNPSGKNVSYNISSTVRVVLNSMDVNSKVICEVAHITLDRSPLRGIANLSNFIRVSPTVKVTQQSPTSMNQVNLTCRAERFYPEDLQLIWLENGNVSRNDTPKNLTKNTDGTYNYTSLFLVNSSAHREDVVFTCQVKHDQQPAITRNHTVLGFAHSSDQGSMQTFPDNNATHNWN | 0.056 | 0.059 | 1.069 | 0.829
